Data reported in article PMC4858940.
These are yes or no findings as the source states them, for the method shown. For some of these results: Binding seen in cells or lysates may run through a third protein. Some binding calls cover weakened binding; strength is not graded here. Sequences can lack the tags named with a protein.

Chains of the proteins cited; added tags and fusions are not shown.
UniProt P0AEZ3: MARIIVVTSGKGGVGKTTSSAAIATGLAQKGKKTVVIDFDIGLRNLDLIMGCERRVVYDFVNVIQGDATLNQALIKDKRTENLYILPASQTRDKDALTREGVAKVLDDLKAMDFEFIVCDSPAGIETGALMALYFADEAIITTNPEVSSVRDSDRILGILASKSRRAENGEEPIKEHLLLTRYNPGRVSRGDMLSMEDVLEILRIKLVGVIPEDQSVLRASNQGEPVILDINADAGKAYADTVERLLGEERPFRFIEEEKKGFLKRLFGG
UniProt P0ABD3: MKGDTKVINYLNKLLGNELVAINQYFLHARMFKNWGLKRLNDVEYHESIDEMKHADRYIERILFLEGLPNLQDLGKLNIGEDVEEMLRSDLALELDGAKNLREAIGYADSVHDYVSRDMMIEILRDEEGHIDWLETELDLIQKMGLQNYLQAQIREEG

T1: MalE-His6-MinC (E. coli) (UniProt P18196)
T1 sequence: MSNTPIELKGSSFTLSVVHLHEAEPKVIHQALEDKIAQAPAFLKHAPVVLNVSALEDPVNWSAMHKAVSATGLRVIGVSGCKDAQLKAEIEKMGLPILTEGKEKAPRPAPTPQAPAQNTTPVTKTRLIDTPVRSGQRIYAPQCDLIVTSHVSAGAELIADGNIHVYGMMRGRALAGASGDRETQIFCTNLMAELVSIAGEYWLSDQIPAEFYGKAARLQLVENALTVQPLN

B1: D-amino acid dehydrogenase small subunit (bacterial two-hybrid fusion) (enzyme, UniProt P0A6J5 1-432)
chain: MRVVILGSGVVGVASAWYLNQAGHEVTVIDREPGAALETSAANAGQISPGYAAPWAAPGVPLKAIKWMFQRHAPLAVRLDGTQFQLKWMWQMLRNCDTSHYMENKGRMVRLAEYSRDCLKALRAETNIQYEGRQGGTLQLFRTEQQYENATRDIAVLEDAGVPYQLLESSRLAEVEPALAEVAHKLTGGLQLPNDETGDCQLFTQNLARMAEQAGVKFRFNTPVDQLLCDGEQIYGVKCGDEVIKADAYVMAFGSYSTAMLKGIVDIPVYPLKGYSLTIPIAQEDGAPVSTILDETYKIAITRFDNRIRVGGMAEIVGFNTELLQPRRETLEMVVRDLYPRGGHVEQATFWTGLRPMTPDGTPVVGRTRFKNLWLNTGHGTLGWTMACGSGQLLSDLLSGRTPAIPYEDLSVARYSRGFTPSRPGHLHGAHS
B2: GFP-tagged probable ubiquinone biosynthesis protein (protein, UniProt P0A6A0 1-546)
chain: MTPGEVRRLYFIIRTFLSYGLDELIPKMRITLPLRLWRYSLFWMPNRHKDKLLGERLRLALQELGPVWIKFGQMLSTRRDLFPPHIADQLALLQDKVAPFDGKLAKQQIEAAMGGLPVEAWFDDFEIKPLASASIAQVHTARLKSNGKEVVIKVIRPDILPVIKADLKLIYRLARWVPRLLPDGRRLRPTEVVREYEKTLIDELNLLRESANAIQLRRNFEDSPMLYIPEVYPDYCSEGMMVMERIYGIPVSDVAALEKNGTNMKLLAERGVQVFFTQVFRDSFFHADMHPGNIFVSYEHPENPKYIGIDCGIVGSLNKEDKRYLAENFIAFFNRDYRKVAELHVDSGWVPPDTNVEEFEFAIRTVCEPIFEKPLAEISFGHVLLNLFNTARRFNMEVQPQLVLLQKTLLYVEGVGRQLYPQLDLWKTAKPFLESWIKDQVGIPALVRAFKEKAPFWVEKMPELPELVYDSLRQGKYLQHSVDKIARELQSNHVRQGQSRYFLGIGATLVLSGTFLLVSRPEWGLMPGWLMAGGLIAWFVGWRKTR
B3: GFP-tagged phosphoglycerate kinase (enzyme, UniProt P0A799 1-387)
chain: MSVIKMTDLDLAGKRVFIRADLNVPVKDGKVTSDARIRASLPTIELALKQGAKVMVTSHLGRPTEGEYNEEFSLLPVVNYLKDKLSNPVRLVKDYLDGVDVAEGELVVLENVRFNKGEKKDDETLSKKYAALCDVFVMDAFGTAHRAQASTHGIGKFADVACAGPLLAAELDALGKALKEPARPMVAIVGGSKVSTKLTVLDSLSKIADQLIVGGGIANTFIAAQGHDVGKSLYEADLVDEAKRLLTTCNIPVPSDVRVATEFSETAPATLKSVNDVKADEQILDIGDASAQELAEILKNAKTILWNGPVGVFEFPNFRKGTEIVANAIADSEAFSIAGGGDTLAAIDLFGIADKISYISTGGGAFLEFVEGKVLPAVAMLEERAKK
B4: GFP-tagged signal recognition particle receptor (protein, UniProt P10121 1-497)
chain: MAKEKKRGFFSWLGFGQKEQTPEKETEVQNEQPVVEEIVQAQEPVKASEQAVEEQPQAHTEAEAETFAADVVEVTEQVAESEKAQPEAEVVAQPEPVVEETPEPVAIEREELPLPEDVNAEAVSPEEWQAEAETVEIVEAAEEEAAKEEITDEELETALAAEAAEEAVMVVPPAEEEQPVEEIAQEQEKPTKEGFFARLKRSLLKTKENLGSGFISLFRGKKIDDDLFEELEEQLLIADVGVETTRKIITNLTEGASRKQLRDAEALYGLLKEEMGEILAKVDEPLNVEGKAPFVILMVGVNGVGKTTTIGKLARQFEQQGKSVMLAAGDTFRAAAVEQLQVWGQRNNIPVIAQHTGADSASVIFDAIQAAKARNIDVLIADTAGRLQNKSHLMEELKKIVRVMKKLDVEAPHEVMLTIDASTGQNAVSQAKLFHEAVGLTGITLTKLDGTAKGGVIFSVADQFGIPIRYIGVGERIEDLRPFKADDFIEALFARED
B5: GFP-tagged protein lysine acetyltransferase (enzyme, UniProt P76594 1-886)
chain: MSQRGLEALLRPKSIAVIGASMKPNRAGYLMMRNLLAGGFNGPVLPVTPAWKAVLGVLAWPDIASLPFTPDLAVLCTNASRNLALLEELGEKGCKTCIILSAPASQHEDLRACALRHNMRLLGPNSLGLLAPWQGLNASFSPVPIKRGKLAFISQSAAVSNTILDWAQQRKMGFSYFIALGDSLDIDVDELLDYLARDSKTSAILLYLEQLSDARRFVSAARSASRNKPILVIKSGRSPAAQRLLNTTAGMDPAWDAAIQRAGLLRVQDTHELFSAVETLSHMRPLRGDRLMIISNGAAPAALALDALWSRNGKLATLSEETCQKLRDALPEHVAISNPLDLRDDASSEHYIKTLDILLHSQDFDALMVIHSPSAAAPATESAQVLIEAVKHHPRSKYVSLLTNWCGEHSSQEARRLFSEAGLPTYRTPEGTITAFMHMVEYRRNQKQLRETPALPSNLTSNTAEAHLLLQQAIAEGATSLDTHEVQPILQAYGMNTLPTWIASDSTEAVHIAEQIGYPVALKLRSPDIPHKSEVQGVMLYLRTANEVQQAANAIFDRVKMAWPQARVHGLLVQSMANRAGAQELRVVVEHDPVFGPLIMLGEGGVEWRPEDQAVVALPPLNMNLARYLVIQGIKSKKIRARSALRPLDVAGLSQLLVQVSNLIVDCPEIQRLDIHPLLASGSEFTALDVTLDISPFEGDNESRLAVRPYPHQLEEWVELKNGERCLFRPILPEDEPQLQQFISRVTKEDLYYRYFSEINEFTHEDLANMTQIDYDREMAFVAVRRIDQTEEILGVTRAISDPDNIDAEFAVLVRSDLKGLGLGRRLMEKLITYTRDHGLQRLNGITMPNNRGMVALARKLGFNVDIQLEEGIVGLTLNLAQREES
B6: GFP-tagged 6-phosphofructokinase isozyme 1 (enzyme, UniProt P0A796 1-320)
chain: MIKKIGVLTSGGDAPGMNAAIRGVVRSALTEGLEVMGIYDGYLGLYEDRMVQLDRYSVSDMINRGGTFLGSARFPEFRDENIRAVAIENLKKRGIDALVVIGGDGSYMGAMRLTEMGFPCIGLPGTIDNDIKGTDYTIGFFTALSTVVEAIDRLRDTSSSHQRISVVEVMGRYCGDLTLAAAIAGGCEFVVVPEVEFSREDLVNEIKAGIAKGKKHAIVAITEHMCDVDELAHFIEKETGRETRATVLGHIQRGGSPVPYDRILASRMGAYAIDLLLAGYGGRCVGIQNEQLVHHDIIDAIENMKRPFKGDWLDCAKKLY
B7: GFP-tagged putative acid-amine ligase (protein, UniProt P0ADT5 1-386)
chain: MERVSITERPDWREKAHEYGFNFHTMYGEPYWCEDAYYKLTLAQVEKLEEVTAELHQMCLKVVEKVIASDELMTKFRIPKHTWSFVRQSWLTHQPSLYSRLDLAWDGTGEPKLLENNADTPTSLYEAAFFQWIWLEDQLNAGNLPEGSDQFNSLQEKLIDRFVELREQYGFQLLHLTCCRDTVEDRGTIQYLQDCATEAEIATEFLYIDDIGLGEKGQFTDLQDQVISNLFKLYPWEFMLREMFSTKLEDAGVRWLEPAWKSIISNKALLPLLWEMFPNHPNLLPAYFAEDDHPQMEKYVVKPIFSREGANVSIIENGKTIEAAEGPYGEEGMIVQQFHPLPKFGDSYMLIGSWLVNDQPAGIGIREDRALITQDMSRFYPHIFVE
B8: GFP-tagged D-amino acid dehydrogenase small subunit (enzyme, UniProt P0A6J5 1-432)
chain: B1 chain
B9: GFP-tagged universal stress protein E (protein, UniProt P0AAC0 1-316)
chain: MAMYQNMLVVIDPNQDDQPALRRAVYLHQRIGGKIKAFLPIYDFSYEMTTLLSPDERTAMRQGVISQRTAWIHEQAKYYLNAGVPIEIKVVWHNRPFEAIIQEVISGGHDLVLKMAHQHDRLEAVIFTPTDWHLLRKCPSPVWMVKDQPWPEGGKALVAVNLASEEPYHNALNEKLVKETIELAEQVNHTEVHLVGAYPVTPINIAIELPEFDPSVYNDAIRGQHLLAMKALRQKFGINENMTHVEKGLPEEVIPDLAEHLQAGIVVLGTVGRTGISAAFLGNTAEQVIDHLRCDLLVIKPDQYQTPVELDDEEDD

biological target: MinD (bacterial two-hybrid fusion) (E. coli) (UniProt P0AEZ3); assay: two-hybrid; bacterial two-hybrid (CyaA T25 and T18 fusions) in E. coli DHP1; cultures spotted on LB plates with 0.5 mM IPTG and X-Gal, 30 °C, colour developed for 18 h; every protein cloned in pT18 and in pT25 for cross-examination

binding | Molecule
binds | Bacterioferritin (bacterial two-hybrid fusion) (from UniProt P0ABD3 1-158)
binds | B1

biological target: T1, MalE-His6-MinC (E. coli); assay: pull-down; His-tagged MinC, MinD or MinE immobilised on Ni Sepharose resin; mixed with clear lysate holding the GFP-tagged POI, 4 °C, 60 min; 25 mM Tris-Cl pH 8.0, 150 mM KCl, washes with 5 and 30 mM imidazole, elution with 300 mM imidazole; Western blot with anti-GFP and anti-His6; only the target purified

binding | Molecule
no binding | B2
no binding | B3
no binding | B4
binds | B5
binds | B6
binds | B7

biological target: His6-MinD (E. coli) (UniProt P0AEZ3); assay: as above

binding | Molecule
binds | GFP-tagged bacterioferritin (from UniProt P0ABD3 1-158)
no binding | B2
no binding | B3
no binding | B4
binds | B5
binds | B8
binds | B9
binds | B6

biological target: MinE-His6 (E. coli) (UniProt P0A734); assay: as above

binding | Molecule
no binding | B2
no binding | B3
no binding | B4
binds | B5
binds | B9
binds | B6
